From PubChem BioAssay AID1347120 (National Center for Advancing Translational Sciences (NCATS), 2019)
The campaign covered roughly 390,000 compounds. About 930 (0.24%) were called active. Inconclusive means that the source gave no clear call. Such entries were picked first, then a sample of the others. The call rests on the fitted dose curve; in most records, active means well fitted activation curve with a large enough effect; inconclusive means small, poorly fitted or top-dose-only effect; inactive means no such curve, though single readings can be large or run the other way. Potencies of inconclusive entries are doubtful fits and often do not repeat.

Assay: qHTS for Suppressors of FUS Proteinopathy: Primary screen using FUS-linked yeast assay; further: nearly all actives have a fitted effect of over 55% in size;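 on growth rescue (activation): plate controls were DMSO vehicle for no effect and reference control for full effect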
Details: S. cerevisiae FUS-expressing, OD600, 24 h; Potency: growth rescue; growth rescue (activation): at 76.6 µM (top of the series)
Method in brief: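 Compound concentration series was pinned onto galactose-induced FUS-expressing yeast seeded at OD 0.005. Plates sat 24hr at 30C; absorbance at 600 nm gave growth. DMSO served as background control.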
Potency means the concentration at half of the fitted maximal effect; tags describe the fitted curve by direction and shape.

Row | SMILES | growth rescue (activation) | Potency
1 | CN(C)c1ccc(/C(=N\O)C(F)(F)F)cc1 | inactive: 16.4% | –
2 | COc1ccc(/C=C/C(=O)c2nc3ccccc3n2CC(=O)c2ccc(OC)cc2)cc1 | – | inconclusive: 39.8 µM [activator, partial curve, poor fit]
3 | Cc1ncc(CO)c2c1Oc1nc(-c3ccc(F)cc3)nc(SCC(=O)N3CCCCC3)c1C2 | inactive: 10.2% | –
4 | COc1ccc(NC(=O)CSC2=Nc3ccccc3C3=NC(CCC(=O)NCc4cccs4)C(=O)N23)cc1 (stereo unspecified) | – | inconclusive: 31.6 µM [activator, single point]
5 | O=C(O)c1ccc(NC2=C(Cl)C(=O)c3ccccc3C2=O)cc1 | inactive: -26.2% | –
6 | Cc1noc(C)c1S(=O)(=O)N(C)C[C@H]1Oc2ccc(NC(=O)NC3CCCCC3)cc2C(=O)N([C@H](C)CO)C[C@@H]1C | – | inconclusive: 25.1 µM [activator, partial curve]
7 | CCCN(CCC)S(=O)(=O)c1ccc(C(=O)Nc2ccc(S(=O)(=O)Nc3nnc(CC)s3)cc2)cc1 | – | inconclusive: 0.794 µM [activator, full curve, poor fit]
8 | Nc1nnc(SCC(=O)Nc2cccc(S(=O)(=O)N3CCCCC3)c2)s1 | – | inconclusive: 35.5 µM [activator, partial curve, poor fit]
9 | C[C@@H](c1ccccc1)N1C[C@H](COCc2ccccc2)Oc2cc(N3CCC[C@H]3CO)ccc2S1(=O)=O | – | inconclusive: 50.1 µM [activator, single point]
10 | CCOc1ccc(NC(=O)CCn2c(=O)c3cccn3c3cccnc32)cc1 | inactive: -14.3% | –
11 | COc1ccc2cc(-c3cccc4[nH]cc(C)c34)ccc2c1 | inactive: 19.3% | –
12 | CNC(=S)N/N=C/c1ccc(C(C)C)cc1 | inactive: -13.5% | –
13 | CC(=O)Nc1ccc(-n2c(CCC(=O)O)ccc2-c2ccc(Br)cc2)cc1 | – | inconclusive: 22.4 µM [activator, partial curve, poor fit]
14 | COc1ccc(Cl)cc1NC(=O)Cn1c(=O)n(Cc2cccs2)c(=O)c2cccnc21 | – | inconclusive: 22.4 µM [activator, partial curve, poor fit]
15 | COc1ccccc1N1CCN(C(=O)c2ccc(-c3nc4ccccc4s3)o2)CC1 | – | inconclusive: 25.1 µM [activator, single point]
16 | CN(C(=O)c1ccc(NC(=O)Cc2ccc(NC(=O)C3CCCN(C(=O)C4CCCCC4)C3)cc2)cc1)C1CC1 (stereo unspecified) | – | inconclusive: 31.6 µM [activator, partial curve, poor fit]
17 | COc1ccc(Br)c2c1-c1nc(NC(=O)c3ccccc3F)sc1C2 | – | inconclusive: 25.1 µM [activator, partial curve, poor fit]
18 | Cc1cc(-c2csc(Nc3ccccn3)n2)ccc1F | inactive: 8.77% | –
19 | COc1ccc(Nc2ccccc2NC(=O)c2ccccc2Br)cc1 | inactive: 14.7% | –
20 | NC(=O)C1CCN(c2ncc(Br)cn2)CC1 | inactive: -13.7% | –
21 | CCCCOc1ccc(CNC(=O)Cc2ccc(NC(=O)N3CCCCc4ccccc43)cc2)cc1 | inactive: 22.9% | –

Row | SMILES | growth rescue (activation) | Potency
22 | Cc1ccc(CSCC2Nc3ccc(C(=O)N4CCN(c5ccc(F)cc5)CC4)cc3NC2=O)cc1 (stereo unspecified) | – | inconclusive: 5.01 µM [activator, full curve, poor fit]
23 | CCn1c(=O)n(-c2ccc(F)cc2)c(=O)c2sc3ccccc3c21 | inactive: -25% | –
24 | O=C(O)c1ccccc1SCC(=O)N1CCc2ccccc21 | – | inconclusive: 3.16 µM [activator, partial curve, poor fit]
25 | CCOC1=C2CN(S(=O)(=O)c3ccc(C)cc3)[C@H](c3cccc(Cl)c3)C[C@@H]2N(S(=O)(=O)c2ccccc2[N+](=O)[O-])[C@H](c2ccccc2)C1 | – | inconclusive: 10 µM [activator, partial curve, poor fit]
26 | Cc1ccc(CNc2ncnc3c2nnn3C)cc1 | inactive: 14.2% | –
27 | CN(Cc1cn(Cc2ccc(C(F)(F)F)cc2)nn1)C1CN(Cc2cn(Cc3ccc(C(F)(F)F)cc3)nn2)S(=O)(=O)C1 (stereo unspecified) | – | inconclusive: 12.6 µM [activator, partial curve]
28 | COC(=O)[C@@]1(Cc2ccc(F)cc2)[C@H]2c3cc(C(=O)N4CCCC4)n(Cc4ccc(C(F)(F)F)nc4)c3C[C@H]2CN1C(=O)c1ccccc1 | – | inconclusive: 17.8 µM [activator, partial curve, poor fit]
29 | CSc1ccc(CCNS(=O)(=O)c2ccc3c(c2)C(C)(C)C(=O)N3C)cc1 | – | inconclusive: 22.4 µM [activator, partial curve]
30 | COc1cc(OC)c(NC(=O)N2CC3CCCN3c3ccccc32)cc1Cl (stereo unspecified) | – | inconclusive: 50.1 µM [activator, single point]
31 | Nc1ccc(O)cc1C(=O)OCC(=O)C12CC3CC(CC(C3)C1)C2 | – | inconclusive: 6.31 µM [activator, full curve]
32 | CC[C@]12c3[nH]c4ccc(OC)cc4c3CCN1C(=O)C(CC(=O)NCC13CC4CC(CC(C4)C1)C3)C[C@@H]2C(=O)N1CCN(C(=O)C2CC2)CC1 (stereo partly specified) | – | inconclusive: 25.1 µM [activator, single point]
33 | O=C(Nc1ccc2c(c1)N(Cc1ccccc1)C(=O)c1ccccc1S2)NC1CC1 | – | inconclusive: 31.6 µM [activator, partial curve]
34 | CCN(CC)c1nc2ccccc2nc1C(=O)Nc1cc(OC)c(OC)c(OC)c1 | – | inconclusive: 50.1 µM [activator, single point]
35 | CC(C)(C)OC(=O)NCc1ccc(CNC(=O)c2nc[nH]c2C(=O)NCc2ccc(CNC(=O)OC(C)(C)C)cc2)cc1 | – | inconclusive: 12.6 µM [activator, partial curve]
36 | COc1ccc(NC(=O)CCn2cccc2)cc1 | inconclusive: 73.7% [activator] | –
37 | COc1cc2ncnc(NCc3ccccc3C)c2cc1OC | inactive: 3.1% | –
38 | COc1cc(/C=C2\SC(=S)N(CCC(=O)Nc3cccc(O)c3)C2=O)cc(OC)c1OC | – | inconclusive: 31.6 µM [activator, single point]
39 | OC(c1ccc(-c2ccccc2)cc1)c1ncc(-c2ccc(C(F)(F)F)cc2)[nH]1 (stereo unspecified) | – | inconclusive: 50.1 µM [activator, single point]
40 | CCN(CC)CCCn1c(C)cc2c(c1=O)C(c1ccccc1)C(C#N)=C(N)O2 (stereo unspecified) | inactive: 15.7% | –
41 | COc1cccc(Cn2nnc3c(=O)[nH]c(C4CCN(C(=O)c5ccccc5Cl)CC4)nc32)c1 | – | inconclusive: 28.2 µM [activator, single point]
42 | Cc1ccc(N2CCN(C(=O)c3cnc(N4CCCCC4)c4ccccc34)CC2)c(C)c1 | – | inconclusive: 31.6 µM [activator, single point]

Row | SMILES | growth rescue (activation) | Potency
43 | O=C(Nc1ccc(NC(=O)c2sc3ccccc3c2Cl)cc1Cl)c1ccco1 | – | inconclusive: 2.82 µM [activator, full curve, poor fit]
44 | CC(=O)NC1CC2CCCC(C1)N2S(=O)(=O)c1cccc(F)c1 (stereo unspecified) | – | active: 31.6 µM
45 | C#CCN1CC(N(C)CCOC(=O)CCCc2ccccc2)CS1(=O)=O (stereo unspecified) | inactive: -2.3% | –
46 | O=C(NCCc1ccccc1Cl)c1sc2ncccc2c1-n1cccc1 | – | inconclusive: 50.1 µM [activator, single point]
47 | CCOC(=O)c1c(NC(=O)C(C)Sc2nnc(C)c(=O)[nH]2)sc2c1CCCC2 (stereo unspecified) | – | inconclusive: 50.1 µM [activator, single point]
48 | Cc1cc(N2CCCN(C)CC2)nc2cc(Cl)ccc12 | – | inconclusive: 35.5 µM [activator, partial curve, poor fit]
49 | COc1ccc(NC(=O)CCCSc2nc(-c3ccco3)cc(C(F)(F)F)n2)cc1OC | – | inconclusive: 50.1 µM [activator, partial curve, poor fit]
50 | CCCCN(CC)CCCNC(=O)c1cc2c(=O)[nH]c3ccccc3c2n1C | inactive: 33.4% | –
51 | Cc1ccc(C)c(N2CCN(c3ncnc4c3cnn4-c3ccccc3)CC2)c1 | inactive: -16.3% | –
52 | CC(=O)c1ccc(NS(=O)(=O)c2cccc(S(=O)(=O)c3ccc(Cl)cc3)c2)cc1 | inactive: 19.1% | –
53 | O=C(NNC(=O)c1cc2cc3ccccc3nc2s1)c1cccc(Cl)c1 | inactive: -29.5% | –
54 | CCn1cc(C(=O)NCc2ccco2)c(=O)c2cc(S(=O)(=O)N3CCc4ccccc4C3)ccc21 | – | active: 6.31 µM
55 | CC1CCN(S(=O)(=O)c2ccc(C(=O)Nc3nnc(-c4ccccn4)o3)cc2)CC1 | – | inconclusive: 11.2 µM [activator, partial curve, poor fit]
56 | CN(CCc1ccccc1)C(=O)c1ccc(NC(=O)Cc2cccc(NC(=O)C3CCN(C(=O)CCc4ccccc4)CC3)c2)cc1 | – | inconclusive: 20 µM [activator, partial curve, poor fit]
57 | COc1ccc2[nH]c3c(c2c1)CCN1C(=O)C(CC(=O)NCCC2=CCCCC2)C[C@H](C(=O)N(C(C)C)C(C)C)[C@@]31C (stereo partly specified) | – | inconclusive: 22.4 µM [activator, partial curve, poor fit]
58 | COc1ccc(CC(=O)N2CCc3cc(OC)c(OC)cc3C2COc2cc(C)cc(C)c2)cc1OC (stereo unspecified) | – | inconclusive: 39.8 µM [activator, single point]
59 | O=C(COc1ccc(S(=O)(=O)N2CCOCC2)cc1Cl)NCc1ccc2c(c1)OCO2 | – | inconclusive: 20 µM [activator, partial curve]
60 | CCOC(=O)c1ccc(N2C(=O)c3n[nH]c(-c4ccco4)c3C2c2ccc(C)cc2)cc1 (stereo unspecified) | – | inconclusive: 28.2 µM [activator, single point]
61 | C[C@H]1CN([C@@H](C)CO)C(=O)Cc2cc(NC(=O)Cc3ccccc3)ccc2O[C@H]1CN(C)S(=O)(=O)c1cccs1 | – | inconclusive: 20 µM [activator, partial curve, poor fit]
